# Test results taken from PubChem BioAssay AID489038 (National Center for Advancing Translational Sciences (NCATS), 2010).
# This list was built around the results that the source calls inconclusive (neither active nor inactive); the mix of calls is not that of the screen. Potencies of inconclusive entries are left out as doubtful fits. Calls of active or inactive are those of the source. Calls follow the shape of the dose curve; as a rule, active = well fitted inhibition curve with a large enough effect; inconclusive = small, poorly fitted or top-dose-only effect, or effect the other way; inactive = no such curve, though single readings can be large or run the other way.
# Assay: DHR3 selectivity assay for inhibitors of ROR gamma transcriptional activity
# Settings: Drosophila S2 Gal4-DHR3 UAS-luciferase, 20 h; activity change, negative = inhibition: at 92.2 µM (top of the series)
# In short: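 Drosophila Schneider cells stably expressing a Gal4-DHR3 transactivation domain fusion (metallothionein promoter) and a UAS-driven Photinus luciferase reporter. Compounds were preincubated 1 h, then expression was induced with 700 uM copper sulfate for 20 h at ambient temperature. Luminescence was the read-out.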
# % is scaled to controls: 0 for no effect and ±100 for the full control effect; potency is read from the fitted curve at half-maximal effect; tags tell the direction and shape of the fitted curve.
Compound,"activity change, negative = inhibition",Potency
COC1CCN(C(=O)c2cc(COc3ccc(-n4cncn4)cc3)on2)CC1,inconclusive: 42.3% [activator],–
O=S(=O)(c1ccc(NC(=S)N/N=C/c2ccc(Oc3ccccc3)cc2)cc1)N1CCOCC1,–,"inconclusive [activator, full curve]"
Cc1ccc(-c2cn(-c3ccccc3)c3[n+]2CCCS3)cc1,–,"inconclusive [activator, full curve, poor fit]"
COc1cc(O)c(C(CC(=O)N2CCOCC2)c2ccc3c(c2)OCO3)c(OC)c1 (stereo not given),–,"inconclusive [activator, partial curve, poor fit]"
COc1cc(O)c(C(CC(=O)N2CCCC(C(F)(F)F)C2)c2ccc3c(c2)OCO3)c(OC)c1 (stereo not given),–,inactive
CC(C)(C)OC(=O)N1CCC[C@H]1C(=O)N1CCC(C(=O)N[C@H](Cc2ccccc2)C(=O)NCc2ccc(F)cc2)CC1,–,"inconclusive [inhibitor, full curve, poor fit]"
COc1ccccc1CNC(=O)[C@H](C)NC(=O)C1CCN(C(=O)[C@@H]2CCCN2C(=O)OC(C)(C)C)CC1,–,"inconclusive [activator, single point]"
CN(C)S(=O)(=O)c1ccc(NC(=O)/C=C/c2ccccc2Cl)cc1,–,active: 1620 nM
COc1cc(O)c(C(CC(=O)N(C)c2cccc(C)c2)c2ccc3c(c2)OCO3)c(OC)c1 (stereo not given),–,inactive
COc1cc(O)c(C(CC(=O)N2CC(C)CC(C)C2)c2ccc3c(c2)OCCO3)c(OC)c1 (stereo not given),–,inconclusive [inhibitor]
